Results taken from the supplement of paper PMC12217912.
The list shows a part of the results. The full chains were built here from the parent and the listed change. Inactive controls read about 0.05.

B1: TEV protease; numbered along this chain (parent)
chain: MGESLFKGPRDYNPISSSICHLTNESDGHTTSLYGIGFGPFIITNKHLFRRNNGTLVVQSLHGVFKVKDTTTLQQHLVDGRDMIIIRMPKDFPPFPQKLKFREPQREERICLVTTNFQTKSMSSMVSDTSCTFPSGDGIFWKHWIQTKDGQCGSPLVSTRDGFIVGIHSASNFTNTNNYFTSVPKNFMELLTNQEAQQWVSGWRLNADSVLWGGHKVFMVKPEEPFQPVKEATQL

Variants of: B1
Assay: raw area under fraction-flipped curve 0-4 h after induction (AUC4h, not background-subtracted), DNA-recorder readout of cleavage of the substrate (dimensionless); higher = more cleavage of the substrate by the protease variant
Conditions: temperature: 34 °C; time window: 0-4 h after rhamnose induction
Protocol: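 In vivo DNA recorder in E. coli TOP10(DE3) ΔrhaA at 34 °C. Each TEVp single-site mutant (parent TEVp 0) is paired with a single-site variant of the 7-mer TEVs (canonical ENLYFQ|S). The substrate sits between flexible linkers in a Bxb1-sfGFP-TEVs-SsrA fusion, so cleavage stabilises Bxb1 and speeds flipping of a recombination array, read by NGS. The value is the raw area under the fraction-flipped curve over 0-4 h after rhamnose induction (AUC4h), with ≥20 reads per time point. It is not background-subtracted; inactive controls average about 0.047.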
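Also: Bxb1 expression induced with 0.2% (w/v) L-rhamnose at OD600 near 0.5, cultures sampled hourly, flipped fraction per protease–substrate barcode pair counted by paired-end Illumina sequencing.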

Variant	area with substrate ENLYDQS	area with substrate ENLYGQS	area with substrate ENLYHQS	area with substrate ENLYIQS	area with substrate ENLYKQS	area with substrate ENLYNQS	area with substrate ENLYQQS	area with substrate ENLYRQS	area with substrate ENLYSQS	area with substrate ENLYVQS
L99I	0.0613	0.0269	0.0654	0.0883	0.0215	0.0676	0.0626	0.0508	0.0795	0.11
L99E	0.0754		0.043	0.0974	0.0502	0.05	0.0544			
L99M	0.0726	0.0616	0.0737		0.0719	0.0737				
L99V	0.0633	0.069	0.0863		0.0434	0.0606	0.0597		0.0551	0.111
L99H	0.0595						0.0599			0.0985
Q74I	0.0676	0.0557		0.0785					0.0496	
F95N	0.0297	0.0727				0.0438	0.0582			
P89C	0.0651	0.0638	0.0661			0.0705		0.043		
P89A	0.0637				0.0472	0.0516		0.0559	0.0765	
Q97W	0.0447		0.0779					0.0669		
S171K	0.0648		0.0754			0.0581				0.0815
D149I	0.0617		0.0507		0.0542	0.0549	0.0585	0.0537		
V58L	0.0589		0.0722	0.126	0.065					0.133
G162N	0.0706				0.0756			0.0444		
D82V	0.0645	0.0613	0.0208			0.051				
F117P	0.0655	0.0639	0.0731	0.122	0.0662	0.0723			0.0707	0.116
Q75M	0.0643	0.0675		0.129	0.0621	0.0432			0.0237	0.118
K66W	0.0441	0.0601	0.0527	0.0806		0.0774		0.0617	0.0771	0.12
K66E	0.0394	0.0606		0.0884	0.0651			0.0639		
Q118C	0.0628		0.0594				0.0691			

Variant	area with substrate ENLYDQS	area with substrate ENLYGQS	area with substrate ENLYHQS	area with substrate ENLYIQS	area with substrate ENLYKQS	area with substrate ENLYNQS	area with substrate ENLYQQS	area with substrate ENLYRQS	area with substrate ENLYSQS	area with substrate ENLYVQS
G153L	0.0164	0.0484			0.0488	0.0552				0.0637
G153C	0.058	0.0457	0.0517	0.0483	0.0429	0.06		0.0691	0.04	0.136
E103I	0.0894	0.0664	0.0641	0.13	0.0586		0.0452			
E103S	0.0686	0.07	0.061				0.0572			
E103P	0.0665		0.0674	0.132		0.0751		0.0642		0.104
D91T	0.0832	0.0651	0.058		0.0249	0.0643	0.0697		0.05	
T181E	0.0632			0.069						
T181H	0.0435		0.0167	0.0598	0.0529	0.0575		0.0556	0.0719	0.0689
I85H	0.0811		0.0572	0.0842		0.0458	0.0496	0.0491	0.0424	0.0565
N175S	0.0721			0.0941	0.0713	0.0584		0.0531	0.0939	
N175Q	0.0628	0.0522	0.061	0.114		0.0613		0.0423		
N175A	0.0657	0.0575	0.0593		0.0694	0.0654		0.0565		0.0678
N177T	0.0665	0.0657	0.0833	0.151	0.0634	0.074		0.0733	0.111	0.121
A170W	0.0662	0.0303	0.0719	0.0648				0.0582		
A170E	0.075	0.0587	0.0608			0.0725	0.0613			0.058
E108G	0.0574		0.0508	0.0932			0.0523			
T159K	0.0603	0.0631	0.0735	0.111	0.059			0.0564	0.06	
C131H	0.0387		0.0796							
C131I	0.0538	0.0593	0.0692				0.0726	0.0495		0.0885

Same assay, conditions: temperature: 34 °C; time window: 0-4 h after rhamnose induction

Variant	area with substrate ENLYWQS	area with substrate ENLYMQS	area with substrate ENLYPQS	area with substrate ENLYEQS	area with substrate ENLYTQS	area with substrate ENLYYQS	area with substrate ENLYLQS
L99I	0.0757						
L99E		0.0707	0.0621				
L99M		0.0856	0.0851				
L99V		0.0856		0.0596	0.0794	0.0642	
Q74I	0.0746		0.064	0.057			
F95N		0.0324		0.043		0.0618	
P89A		0.0636	0.0681		0.068		
Q97W			0.0525				
S171K	0.0512			0.094			
D149I				0.075		0.0588	
V58L	0.113		0.0715	0.0567	0.0773	0.0667	
G162N		0.0868	0.0733				
D82V	0.0473	0.0586		0.047	0.0519		
F117P	0.0709		0.105	0.0562			
Q75M				0.0702		0.0622	
K66W		0.0808	0.094	0.0454		0.0692	
K66E	0.0649		0.0807	0.0687		0.068	
Q118C		0.0715	0.0692	0.061			

Variant	area with substrate ENLYWQS	area with substrate ENLYMQS	area with substrate ENLYPQS	area with substrate ENLYEQS	area with substrate ENLYTQS	area with substrate ENLYYQS	area with substrate ENLYLQS
G153L		0.0616	0.0586			0.0478	
G153C	0.0444		0.0559	0.0546	0.0645		
E103I	0.0931	0.0791	0.0672	0.0752	0.0875		
E103S			0.075	0.0348	0.0844		
E103P			0.21				
D91T		0.0861	0.0709				
T181E	0.0628	0.0618	0.0668	0.0606			
T181H			0.0538			0.0691	
I85H	0.102	0.0501		0.0634		0.0487	
N175Q	0.0286		0.0566	0.0508	0.0823		
N175A	0.0752	0.0751	0.0458	0.0678			0.0759
N177T	0.107		0.0823		0.0943		
A170W		0.064	0.0587	0.0584	0.0572	0.0599	0.0549
A170E		0.0657				0.07	
E108G	0.0667	0.0725			0.0655		
T159K	0.0955		0.0785	0.0667			
C131H	0.0682						
C131I			0.0695	0.07		0.0495	
